# From PubChem BioAssay AID2675 (National Center for Advancing Translational Sciences (NCATS), 2010)
# About 100 (0.036%) of roughly 280,000 compounds were called active. The shares of active, inactive and inconclusive entries below differ from those in the screen. Calls come from the whole dose curve; as a rule, active = well fitted inhibition curve with a large enough effect in the signal ratio, with a control signal flat (not every such curve was filed as active); inconclusive = small, poorly fitted or top-dose-only effect, or effect the other way, or a change in a side signal; inactive = no such curve, though single readings can be large or run the other way; the % refers to the signal ratio. A potency beside an inconclusive call is a rough fit, not a confirmed value. A note “side channel” means that the fit belongs to a control or component signal, not to the main read-out.
# Molecular target: Muscleblind-like protein 1 (Homo sapiens) (UniProt Q9NR56)
# UniProt Q9NR56, sequence (Q9NR56 whole entry, looked up): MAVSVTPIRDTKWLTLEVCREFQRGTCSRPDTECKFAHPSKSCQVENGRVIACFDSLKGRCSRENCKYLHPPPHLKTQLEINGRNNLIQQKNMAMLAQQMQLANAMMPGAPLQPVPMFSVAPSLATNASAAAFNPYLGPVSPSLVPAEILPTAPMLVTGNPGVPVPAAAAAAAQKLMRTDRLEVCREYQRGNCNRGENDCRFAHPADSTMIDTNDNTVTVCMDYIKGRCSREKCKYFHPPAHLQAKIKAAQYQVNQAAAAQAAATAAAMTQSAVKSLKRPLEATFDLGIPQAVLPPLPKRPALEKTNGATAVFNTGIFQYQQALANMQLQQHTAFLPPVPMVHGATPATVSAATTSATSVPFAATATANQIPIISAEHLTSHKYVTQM
# Assay: qHTS Assay for Inhibitors of MBNL1-poly(CUG) RNA binding
# Conditions: TR-FRET MBNL1-His/biotin-(CUG)12 binding, 665/545 ratio; series mostly up to 57.5 µM
# Outline: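 Compound titration spanned 92 nM–58 uM against the MBNL1-His/biotin-(CUG)12 complex. After 60 min at room temperature with 5 nM streptavidin-XL665 and 0.055 ng/ul terbium anti-His, ratiometric 665/545 nm emission (Ex 340 nm) normalized to controls.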
# Potency is the fitted concentration of half-maximal effect; tags give direction and shape of the fitted curve or compound fluorescence and quenching.
row,SMILES,Potency
1,CCOC(=O)/C(C#N)=C/c1c[nH]c2ccccc12,"inconclusive: 8.91 µM [quencher, side channel, partial curve]"
2,Cc1ccc(-n2c(N)c(C(=O)NCc3cccnc3)sc2=S)cc1,"inconclusive: 14.1 µM [quencher, side channel, partial curve]"
3,CN(C)/C(=N\S(=O)(=O)c1ccc(Cl)cc1)c1ccc(F)cc1,inactive
4,O=C(OCCCCN1C(=O)c2ccccc2C1=O)c1n[nH]c2ccccc12,"inconclusive: 39.8 µM [quencher, side channel, single point]"
5,O=C(c1cccc([N+](=O)[O-])c1)c1ccc2c(c1)C(=O)NC2=O,"inconclusive: 8.91 µM [quencher, side channel, partial curve]"
6,Cc1cccc(OCCC(=O)NCC(c2ccccc2)N(C)C)c1 (configuration not stated),"inconclusive: 22.4 µM [quencher, side channel, single point]"
7,CN(CC(=O)NCCc1ccccc1)S(=O)(=O)c1ccc(Br)s1,inactive
8,Cc1nc([N+](=O)[O-])c(C(=O)OCc2ccccc2Br)n1C,"inconclusive: 20 µM [quencher, side channel, partial curve]"
9,Cn1ncc(Cl)c1C(=O)Nc1nc2ccc(Cl)cc2s1,"inconclusive: 10 µM [fluorescent, side channel, full curve, poor fit]"
10,O=C(N/C(=C\c1ccc(Cl)cc1)C(=O)N1CCOCC1)c1ccc([N+](=O)[O-])cc1,"inconclusive: 15.8 µM [quencher, partial curve]"
11,O=c1c2c([N+](=O)[O-])cc([N+](=O)[O-])cc2sn1-c1ccc(Br)cc1,"inconclusive: 10 µM [quencher, side channel, partial curve]"
12,CC(=O)n1cc(N(C(=O)CCl)c2ccc(C)cc2)c2ccccc21,inactive
13,CCCc1cc(=O)oc2cc(C)cc(OC(C)C(=O)NCc3ccncc3)c12 (configuration not stated),inactive
14,CN1C=CC2=C(C#N)C(N)C(C#N)(C#N)[C@H](c3ccccc3)[C@H]2C1 (some centres not stated),"inconclusive: 15.8 µM [quencher, side channel, partial curve, poor fit]"
15,Nc1cc(C(=O)OCC(=O)NC(c2ccccc2)c2ccccc2)ccc1Cl,inactive
16,CSc1nc(N2CCN(Cc3ccc4c(c3)OCO4)CC2)c2ccccc2n1,inactive
17,CN(c1ccc(O)cc1)c1nc(-c2cccnc2)cs1,"inconclusive: 31.6 µM [quencher, side channel, single point]"
18,O=[N+]([O-])c1ccc(-c2cnc(SCc3ccccc3Cl)[nH]2)cc1,"inconclusive: 20 µM [quencher, side channel, partial curve]"
19,CC(C)(C)c1cc[n+](C2=C([O-])c3ccccc3C(=O)/C2=N\S(=O)(=O)c2cccs2)cc1,"inconclusive: 10 µM [quencher, side channel, partial curve]"

row,SMILES,Potency
1,C#CCNC(=O)C1=C[C@@H](c2cn(C(C)=O)c3ccccc23)C[C@@H](OCc2ccc(CO)cc2)O1,inactive
2,O=C(CSc1nnc(-c2ccccc2)n1-c1ccc(Cl)cc1)NC1CCS(=O)(=O)C1 (configuration not stated),"inconclusive: 0.112 µM [fluorescent, side channel, full curve, poor fit]"
3,CC(C)c1cccc(OCCN2CCCC2)c1,inactive
4,O=C1c2cccc(OCC(=O)N3N=C(c4cccs4)CC3c3ccc(F)cc3)c2CCN1Cc1cccnc1 (configuration not stated),"inconclusive: 0.708 µM [fluorescent, side channel, single point]"
5,COc1ccc(/C=C/C(=O)NCCCc2ccccc2)cc1OC,"inconclusive: 2.51 µM [quencher, side channel, single point]"
6,COc1ccc(CCNC(=O)c2ccc(CNS(=O)(=O)c3cccc(Cl)c3)cc2)cc1OC,"inconclusive: 0.1 µM [fluorescent, side channel, full curve]"
7,CCOC(=O)N1CCC(N2Cc3cccc(C(=O)NCc4ccc(C)cc4)c3C2=O)CC1,"inconclusive: 28.2 µM [quencher, side channel, single point]"
8,O=C(N/N=C/c1ccccc1Cl)c1[nH]c2ccc(Br)cc2c1-c1ccccc1,"inconclusive: 100 µM [inhibitor, single point]"
9,O=[N+]([O-])c1nn(-c2ccccc2)n(O)c1=NCCc1ccccc1,"inconclusive: 6.31 µM [quencher, side channel, full curve]"
10,O=C(Nc1ccncc1)c1cc(F)cc(F)c1,"inconclusive: 39.8 µM [fluorescent, side channel, single point]"
11,C[C@H](NS(=O)(=O)c1ccccc1)C(=O)OCC(=O)NC(=O)Nc1ccc2c(c1)OCCO2,"inconclusive: 7.94 µM [fluorescent, side channel, single point]"
12,CN(CCC#N)C(=O)c1cc2c(s1)-c1ccccc1SC2,"inconclusive: 14.1 µM [quencher, side channel, partial curve]"
13,O=c1cc(/C=C/c2cccs2)[nH]c2ccccc12,"inconclusive: 25.1 µM [quencher, single point]"
14,O=C(c1ccc([N+](=O)[O-])o1)N1CCc2ccccc21,"inconclusive: 3.98 µM [quencher, side channel, full curve]"
15,O=C(COC(=O)COc1ccc(Cl)cc1)Nc1ccc(F)c([N+](=O)[O-])c1,"inconclusive: 14.1 µM [quencher, side channel, partial curve]"
16,CCc1cc2cc(C(=O)Nc3ccc(F)cc3)sc2s1,"inconclusive: 8.91 µM [fluorescent, side channel, partial curve]"
17,O=[N+]([O-])c1ccc(NC(=S)NCCc2ccccc2)cc1,"inconclusive: 10 µM [quencher, side channel, partial curve]"
18,CCOc1cc(/C=C2\N=C(SC(C)C(N)=O)N(c3ccc(OC(F)F)cc3)C2=O)ccc1O (configuration not stated),"inconclusive: 14.1 µM [quencher, side channel, partial curve]"
